Whole data set: some 33,000 sequences, median “E-score (-0.5 to 0.5)” near -0.017, cut for the highest 2% near 0.3. Some of the results follow.

This test has as its target T1, Sut1 (UniProt P53032).
T1 sequence: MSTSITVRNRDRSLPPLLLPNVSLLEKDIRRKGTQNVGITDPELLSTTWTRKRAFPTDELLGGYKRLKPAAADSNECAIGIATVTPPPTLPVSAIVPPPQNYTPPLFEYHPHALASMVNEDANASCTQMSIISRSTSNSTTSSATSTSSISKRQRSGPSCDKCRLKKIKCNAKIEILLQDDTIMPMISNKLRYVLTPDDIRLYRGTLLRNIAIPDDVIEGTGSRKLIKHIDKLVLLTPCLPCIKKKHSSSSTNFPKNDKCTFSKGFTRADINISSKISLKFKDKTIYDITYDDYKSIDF
The experiment in a line: PBM E-score (8-mer binding enrichment) (E-score (-0.5 to 0.5)); higher = stronger / more preferred TF binding; most listed sequences are background and not binding sites. To be noted: protein concentration: 200 nM; construct: GST-full length. In a few lines: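 Yeast transcription factors, full-length or as DNA-binding domains, were expressed with a GST tag using PURExpress in vitro transcription/translation. At about 100-200 nM they were applied to universal all-10-mer Agilent arrays, double-stranded by primer extension on fresh or once-stripped slides. Fluorescent anti-GST detected bound protein, and masliner normalised the scans. E-scores for ungapped eight-base words, pooled with reverse complements, came from the Universal PBM Analysis Suite.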
In the case of CCCAGAAA, the “PBM E-score” value was found to be 0.0506.
The result for TAGCCGGA reads 0.282.
Consider GGGCAAAC, for which the “PBM E-score” value was -0.148.
The result for CGTTCTGC reads 0.0265.
For CTCGGCAC the value was -0.167; for ACGTGTGG, -0.19.
For AAGGCTAC, the “PBM E-score” value was -0.157.
The result for AGTTGTGG reads 0.0614; that for ACCAAGCC, -0.27.
The result for ACACGTCT reads -0.0318.
The result for AAACGAGC reads -0.0772; that for CTACACCA, 0.0145; that for CTTGTACA, 0.102.
As to ATTCACCA, the “PBM E-score” value was 0.0944.
CCAACATC: the “PBM E-score” value is -0.12.
As to AAACCGCT, the “PBM E-score” value is -0.0687.
For CCTGAGCC the value was -0.332; for ACATGGTC, -0.136; for AGTTTAAT, 0.069.
The result for AATCTAAG reads 0.0379; that for TCTTGGCA, -0.0212; that for CCGCCAAG, -0.255.
The result for CACACGTG reads -0.266.
In the case of GAGCACCA, the “PBM E-score” value was -0.136.
The result for CATCCGTA reads 0.0986.
The result for ACAAGACG reads -0.1; that for CGCCTGGC, -0.255; that for GATCAAGC, -0.0368.
The result for AGGGGTGG reads -0.277.
In the case of CAAGACTG, the “PBM E-score” value is -0.0769.
Take GGTGGAGA: the “PBM E-score” value is -0.291.
For CAATAGTG the value was 0.132.
For CAGATTGA the value was -0.0978; for CTGGTGAC, -0.288; for GGAAAGCA, 0.0465.
As to TGTCGAAA, the “PBM E-score” value was found to be 0.0677.
The result for AGAAACTG reads 0.0171.
For GGCAATAA the value was 0.0721; for CTCCTGCC, 0.00035.
The result for CGAACTGC reads -0.00207; that for CGACTTAA, 0.00564.
For ATCTAGTG, the “PBM E-score” value was -0.0694.
The result for AGTAAGGG reads 0.0361; that for GCACAATA, -0.214.
The result for ATTGGAAG reads 0.147; that for ATGTATCC, 0.102; that for GATGCGAA, 0.124.
The result for GGCTCGCA reads -0.193.
Consider ACCCTGCC, for which the “PBM E-score” value was -0.0698.
For AGGAATAA the value was 0.0518; for ATACCATG, -0.127.
For ACAAATCT the value was 0.0874; for CCGATTTA, 0.246.
For ACCTAAGA the value was -0.00292.
For AGGGCACA, the “PBM E-score” value is -0.105.
For GATCCTCA the value was 0.0258; for ATGCCAGC, -0.25; for CAGTCTCA, 0.0467.
Take GGGATCCC: the “PBM E-score” value is -0.0974.
For AGCATGAT the value was 0.0775; for AGTAACAT, 0.106; for AGACGTAG, -0.156.
For ATGGACGC the value was -0.014; for ACCTACGC, -0.0423; for AAGGCCGA, 0.115.
For CGCGAACG the value was -0.0292; for AGCTGACC, 0.0565.
As for AAACGATC, the “PBM E-score” value stood at 0.118.
The result for GAATAGGC reads -0.0173; that for CGGCCTCC, -0.215; that for GCTGGAAA, 0.0198.
As for CATTTCAA, the “PBM E-score” value amounted to 0.275.
The result for GAGGCATA reads 0.0426; that for AATCTCCG, 0.454.
For TGCCTGAA the value was -0.151.
Turning to CTCCGATC, the “PBM E-score” value is 0.38.
For ACTCACAG the value was 0.0594; for CTCGGCCC, -0.209.
The result for AGGAATAG reads 0.153; that for AAAGTATC, 0.174; that for ACTGCCGG, 0.0182.
For ATCGCCTC the value was -0.067; for ATAAACCA, 0.0881; for ACTACTGA, -0.178.
As to GAAGGTGA, the “PBM E-score” value is 0.00383.
The result for AGTGCTTC reads 0.0385; that for AAAACTTC, 0.158.
Turning to GGGATGAA, the “PBM E-score” value is -0.138.
As for AGCATTAC, the “PBM E-score” value turned out to be 0.0106.
For CAAACGTC the value was -0.144.
For CCTAACTC the value was -0.0733.
CTCGGACA: the “PBM E-score” value amounted to 0.354.
For CTCTGCCA the value was -0.129; for GCATACCC, -0.135; for ATATTAAC, 0.252.
For ATAACAAC, the “PBM E-score” value came out at 0.14.
For the sequence GCTCGTTA, the “PBM E-score” value was found to be 0.00927.
For AATGGCTC the value was -0.024; for CGTAGGCA, -0.169; for CTAATTGA, 0.16.
For CCACAATA the value was -0.113; for ATCTGATA, -0.17; for ATTGTCTA, 0.193.
The result for GCAATCGC reads -0.15; that for GCGGTAAA, 0.0988.
Regarding ACGCTCCA, the “PBM E-score” value turned out to be 0.0226.
ATACCTCC: the “PBM E-score” value was -0.11.
For the sequence ACCTCCCC, the “PBM E-score” value was -0.237.
The result for CCCGCCCG reads -0.117; that for AGATTGAA, 0.249.

These data come from the supplement of paper PMC3334620.
